Measured values as given in the supplement of paper PMC9446081.
Among all 39,000 compounds or so, about 220 (0.56%) showed activity. The list shows a part of the results.

The compounds below were run on Escherichia coli K-12 BW25113 (assay: relative growth (OD600 normalised to plate interquartile mean) (fraction); higher = less growth inhibition, active = 0.2 or less). Details: 50 µM; LB; incubation time: overnight (16-24 h).
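Further: static incubation at 37 °C against the wild-type strain, values averaged over two biological replicates.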

SMILES | relative growth
C[C@@H]1CN([C@H](C)CO)C(=O)c2cc(C#CCN(C)C)cnc2O[C@H]1CN(C)Cc1ccc(C(=O)O)cc1 | inactive: 0.984
C[C@H]1CN([C@@H](C)CO)S(=O)(=O)c2ccc(C#Cc3ccccc3)cc2O[C@@H]1CN(C)S(C)(=O)=O | inactive: 1.02
C[C@H]1CN([C@@H](C)CO)C(=O)Cc2cc(NS(C)(=O)=O)ccc2O[C@H]1CN(C)S(=O)(=O)c1ccc(Cl)cc1 | inactive: 0.952
CC(C)NC(=O)N1Cc2cc(C(=O)NC3CCCCC3)nc(-c3cccc(-c4cccnc4)c3)c2[C@@H]1CCO | inactive: 0.983
COCC(=O)N(C)C[C@@H]1Oc2cc(C#Cc3cccnc3)ccc2S(=O)(=O)N([C@@H](C)CO)C[C@H]1C | inactive: 0.968
C[C@@H]1CCCCO[C@H](CN(C)C(=O)Nc2ccc3c(c2)OCO3)[C@H](C)CN([C@@H](C)CO)C(=O)c2cc(NS(=O)(=O)c3ccc(Cl)cc3)ccc2O1 | inactive: 1.02
Cc1noc(C)c1NC(=O)N[C@@H]1C=C[C@H](CC(=O)NCCCN(C)C)O[C@H]1CO | inactive: 1.04
CO[C@H](CN(C)S(=O)(=O)c1cn(C)cn1)[C@@H](C)CN(C(=O)Nc1ccc(C(F)(F)F)cc1)[C@@H](C)CO | inactive: 0.699
C[C@@H]1CN([C@H](C)CO)C(=O)c2cc(NC(=O)Nc3ccc(C(F)(F)F)cc3)ccc2O[C@@H](C)CCCCO[C@@H]1CN(C)Cc1ccc(C(=O)O)cc1 | inactive: 0.982
COc1ccc(CN(C)C[C@H]2OCCCC[C@@H](C)Oc3ccc(NC(=O)c4ccccc4)cc3C(=O)N([C@@H](C)CO)C[C@H]2C)cc1 | inactive: 0.994
Cc1noc(C)c1NC(=O)N(C)C[C@@H]1Oc2ccc(NS(C)(=O)=O)cc2C(=O)N([C@@H](C)CO)C[C@@H]1C | inactive: 1.03
Cc1ccc(S(=O)(=O)Nc2ccc3c(c2)C(=O)N([C@H](C)CO)C[C@H](C)[C@H](CN(C)S(=O)(=O)c2ccc(C)cc2)OCCCC[C@@H](C)O3)cc1 | inactive: 1.03
CC(C)NC(=O)Nc1ccc2c(c1)C(=O)N([C@H](C)CO)C[C@H](C)[C@@H](CN(C)S(=O)(=O)c1ccc(F)cc1)O2 | inactive: 1.01
C[C@H]1CN([C@@H](C)CO)C(=O)c2cccc(NC(=O)c3ccc(-c4nccs4)cc3)c2O[C@@H]1CN(C)S(=O)(=O)c1ccc(Cl)cc1 | inactive: 1.01
c1cnc(N2CCN(Cc3ccc4c(c3)OCO4)CC2)nc1 | inactive: 0.99
COc1ccc(S(=O)(=O)Nc2ccc3c(c2)C(=O)N([C@@H](C)CO)C[C@H](C)[C@H](CN(C)C(=O)Nc2c(C)noc2C)OCCCC[C@@H](C)O3)cc1 | inactive: 0.982
C[C@H](CO)N1C[C@H](C)[C@@H](CN(C)Cc2ccc(-c3ccccc3)cc2)Oc2c(NS(=O)(=O)c3cccs3)cccc2C1=O | inactive: 0.99
Cc1nn(C)cc1NC(=O)C[C@H]1CC[C@H]2[C@@H](COc3ccc(NC(=O)C4CCOCC4)cc3C(=O)N2C)O1 | inactive: 1
C[C@@H]1CN([C@@H](C)CO)S(=O)(=O)c2ccc(C#CC(C)(C)O)cc2O[C@H]1CN(C)Cc1ccccc1 | inactive: 1.01
C[C@@H]1CN([C@H](C)CO)C(=O)c2cc(NC(=O)CCN3CCOCC3)ccc2O[C@@H]1CN(C)S(=O)(=O)c1ccccc1 | inactive: 1.03
C[C@@H]1CN([C@H](C)CO)C(=O)c2c(c3ccccc3n2C)-c2ccccc2CO[C@H]1CN(C)S(C)(=O)=O | inactive: 0.981
Cl.NC(CS)C(=O)O (centres undefined) | inactive: 1.01
COc1ccc(NC(=O)N(C)C[C@H]2Oc3c(NS(=O)(=O)c4cn(C)cn4)cccc3C(=O)N([C@H](C)CO)C[C@H]2C)cc1 | inactive: 0.979
C[C@@H]1CN([C@H](C)CO)C(=O)Cc2cc(NS(C)(=O)=O)ccc2O[C@H]1CN(C)S(=O)(=O)c1ccc(F)cc1 | inactive: 1.02
C[C@@H]1CCCCO[C@H](CN(C)C(=O)CCCN(C)C)[C@H](C)CN([C@H](C)CO)C(=O)c2cc(N(C)C)ccc2O1 | inactive: 0.959
NS(=O)(=O)c1ccc(CCn2ccn(CC(=O)NCCC3=CCCCC3)c(=O)c2=O)cc1 | inactive: 0.898
C[C@@H]1CN([C@H](C)CO)C(=O)c2cc(C#Cc3cccc(F)c3)cnc2O[C@@H]1CN(C)Cc1ccccn1 | inactive: 1

SMILES | relative growth
C[C@H]1CN([C@@H](C)CO)C(=O)c2cc(NC(=O)Nc3ccc(F)cc3)ccc2O[C@@H]1CN(C)S(=O)(=O)c1cn(C)cn1 | inactive: 0.996
C[C@@H]1CN([C@H](C)CO)C(=O)c2cc(NC(=O)Nc3ccccc3)ccc2O[C@@H](C)CCCCO[C@H]1CN(C)S(=O)(=O)c1cccs1 | inactive: 0.992
C[C@H](CO)N1C[C@H](C)[C@@H](CN(C)S(C)(=O)=O)Oc2ccc(NC(=O)Nc3ccc(F)cc3)cc2CC1=O | inactive: 0.993
Cc1cc(=O)n(C(N)=S)[nH]1 | inactive: 0.961
O=C(Nc1cccc2cccnc12)[C@@H]1[C@H](c2cc(Cl)cc(Br)c2)CC(=O)N1C(=O)OCc1ccccc1 | inactive: 1
C[C@@H]1CCCCO[C@@H](CN(C)C(=O)CCC(F)(F)F)[C@@H](C)CN([C@H](C)CO)C(=O)c2cc(NC(=O)Nc3ccccc3)ccc2O1 | inactive: 0.977
C[C@H](CO)N1C[C@H](C)[C@@H](CN(C)C(=O)Nc2ccc(C(F)(F)F)cc2)Oc2c(NC(=O)Nc3ccc(F)cc3)cccc2C1=O | inactive: 0.975
c1ccc(-c2cc(-c3nc4ccccc4[nH]3)c3ccccc3n2)cc1 | inactive: 1
Cc1ccc(S(=O)(=O)N(C)C[C@@H]2OCCCC[C@H](C)Oc3ccc(NC(=O)c4ccccc4)cc3C(=O)N([C@@H](C)CO)C[C@H]2C)cc1 | inactive: 0.998
C[C@H](CO)N1C[C@H](C)[C@H](CN(C)Cc2ccncc2)OCCCC[C@H](C)Oc2ccc(NC(=O)C3CCCCC3)cc2C1=O | inactive: 1.02
O=C(O)C[C@@H]1CC[C@H]2[C@@H](COC[C@@H](O)CN2S(=O)(=O)c2ccc(F)cc2)O1 | inactive: 0.988
C[C@H](CO)N1C[C@H](C)[C@H](CN(C)Cc2ccc(C(=O)Nc3ccccc3N)cc2)Oc2ccc(NC(=O)CCC(F)(F)F)cc2CC1=O | inactive: 0.983
Cc1ccc(S(=O)(=O)N(C)C[C@H]2Oc3c(NS(=O)(=O)c4cccs4)cccc3C(=O)N([C@H](C)CO)C[C@H]2C)cc1 | inactive: 1.02
COc1ccc(COC[C@]23N=C4SCc5ccccc5CN4[C@H](c4ccccc4O2)[C@H]3COC(=O)NCCCCCC(=O)NO)cc1 | inactive: 0.995
C[C@H]1O[C@@H](OC[C@H]2O[C@@H](O[C@H]3CC[C@]4(C)[C@H]5CCC6=C(CC[C@@]7(C(=O)O[C@@H]8O[C@H](CO)[C@@H](O)[C@H](O)[C@H]8O[C@@H]8O[C@H](CO)[C@@H](O)[C@H](O)[C@H]8O)CCC(C)(C)C[C@@H]67)[C@]5(C)CC[C@H]4C3(C)C)[C@H](O)[C@@H](O)[C@@H]2O)[C@H](O)[C@@H](O)[C@@H]1O | inactive: 0.994
CCCC(=O)Nc1ccc2c(c1)C(=O)N(C)[C@H]1CC[C@H](CC(=O)NCCN3CCCCC3)O[C@@H]1CO2 | inactive: 1.03
C[C@@H]1CN([C@H](C)CO)C(=O)c2cc(-c3cccc(C#N)c3)cnc2O[C@@H]1CN(C)C(=O)C1CCOCC1 | inactive: 0.997
CC(C)CCCC(=O)N[C@@H](CCNCS(=O)(=O)O)C(=O)N[C@H](C(=O)N[C@@H](CCNCS(=O)(=O)O)C(=O)N[C@H]1CCNC(=O)[C@H]([C@@H](C)O)NC(=O)[C@H](CCNCS(=O)(=O)O)NC(=O)[C@H](CCNCS(=O)(=O)O)NC(=O)[C@H](CC(C)C)NC(=O)[C@H](CC(C)C)NC(=O)[C@H](CCNCS(=O)(=O)O)NC1=O)[C@@H](C)O | active: 0.0299
CC(C)NC(=O)Nc1ccc2c(c1)CC(=O)N([C@@H](C)CO)C[C@H](C)[C@@H](CN(C)S(=O)(=O)c1ccccc1)O2 | inactive: 0.976
C[C@H]1CN([C@@H](C)CO)C(=O)Cc2cc(NC(=O)Nc3ccc(C(F)(F)F)cc3)ccc2O[C@@H]1CN(C)Cc1ccc(Oc2ccccc2)cc1 | inactive: 1
Cc1ccc(S(=O)(=O)N(C)C[C@H]2Oc3c(NS(=O)(=O)c4ccccc4)cccc3C(=O)N([C@H](C)CO)C[C@H]2C)cc1 | inactive: 0.994
Cc1noc(C)c1NC(=O)N(C)C[C@H]1Oc2c(NC(=O)Nc3cccc4ccccc34)cccc2C(=O)N([C@@H](C)CO)C[C@@H]1C | inactive: 1
COc1ccc([C@@H]([C@H](Cc2ccccc2)OC(C)=O)N2C[C@H](CC(=O)N(C)C)[C@@H]3C(=NO[C@H]3c3ccccc3)[C@@H]2Cc2ccccc2)cc1 | inactive: 1.03
O=c1[nH]c(=O)n([C@H]2C[C@H](O)[C@@H](CO)O2)cc1F | active: 0.0339
O=C1CN(N=Cc2ccc(-c3ccc([N+](=O)[O-])cc3)o2)C(=O)[N-]1.[Na+] | inactive: 1.06
C[C@@H]1CN([C@H](C)CO)C(=O)CCCn2cc(nn2)CO[C@@H]1CN(C)C(=O)Nc1ccccc1C(F)(F)F | inactive: 0.998
CCOC(=O)CCC(=O)O[C@H]1[C@H](O[C@@H]2[C@@H](C)[C@H](O[C@H]3C[C@@](C)(OC)[C@@H](O)[C@H](C)O3)[C@@H](C)C(=O)O[C@H](CC)[C@@](C)(O)[C@H](O)[C@@H](C)C(=O)[C@H](C)C[C@@]2(C)O)O[C@H](C)C[C@@H]1N(C)C | active: 0.0544
